# Measured values: ChEMBL document CHEMBL4888484, “Replenishing the malaria drug discovery pipeline: Screening and hit evaluation of the MMV Hit Generation Library 1 (HGL1) against asexual blood stage Plasmodium falciparum ,using a nano luciferase reporter read-out” (2022)
# The whole screen tested about 150,000 compounds, of which about 540 (0.36%) showed an effect of 50% or more. The list shows a part of the results.
# Test system: Plasmodium falciparum
# Assay: Primary screen in NF54 nanoGlo assay, in single point, at 2uM, 72h; a lower Z score goes with more inhibition
# Assay type: functional, Erythrocyte
# Details: timepoint 72 hour
Compound,% Inhibition [%],Z score
Cc1cc(C)cc(N(C(=O)[C@H]2CCS(=O)(=O)C2)c2nc(-c3ccc(F)cc3)cs2)c1,-13,1.17
O=C(NCCn1cccn1)N[C@@H](C1CCCC1)C(F)(F)F,-3,0.35
CNc1nc(N2CC(c3ccncc3)C2)nc2c1CCC2,-13,1.67
Cc1cccn2cc(COc3ccccc3C(=O)NCC3CCN(CCO)CC3)nc12,4,-0.37
COC(=O)c1ncn2c1C(=O)N(Cc1cccc(C)c1)[C@](C)(C(=O)NC1CCCCCC1)C2,-6,0.79
O=C(Cn1cnc2ccccc2c1=O)N1CC(c2nc(-c3ccccn3)no2)C1,-9,1.24
O=C([C@@H]1C[C@@H]2OCC[C@@H]2N1C(=O)c1cccc2cnccc12)N1CCCC1,5,-0.77
COc1cccc(N2C(=O)c3cc(-c4ccco4)nn3C[C@@]2(C)C(=O)NCc2ccc(Cl)cc2)c1,-4,0.71
CCCn1ccnc1-c1nccn1-c1cccc(-c2ccnc(C)n2)c1,-12,2.27
C[C@H](NC(=O)c1nn(CCO)c2c1CN(C(=O)c1cn3ccsc3n1)CC2)c1ccccc1,-20,2.59
Cc1nc(CN2CCCN(C(=O)c3scnc3C)CC2)oc1C,-5,0.6
Cc1ccccc1S(=O)(=O)Nc1cccc2[nH]ccc12,12,-1.38
CCOc1cc(N2CCOCC2)c(OCC)cc1NC(=O)[C@H]1CC(=O)N(c2ccc(C)cc2)C1,-7,0.68
CC(=O)Nc1cc(Cl)ccc1NC(=O)c1cn[nH]c1,3,-0.47
Cc1ccc2cc1Oc1cccc(c1)CO[C@H]1CCN(C(=O)c3c[nH]c(=O)c(Cl)c3)C[C@H]1NC(=O)CN(C)C2=O,-12,1.59
Cc1nn(CC(=O)N(C)Cc2cnn(C)c2C)cc1Br,-17,2.13
COc1ccc(-c2ccc(N3CCN(C(=O)CN(CCN(C)C)C(=O)c4ccccc4C)CC3)nn2)cc1OC,-4,0.56
Cc1nnc([C@H](C)NC(=O)C2(O)CCCC2)s1,-4,0.61
CC(=O)N[C@@H](C)C1=CCCN(Cc2cccc(F)c2C(F)(F)F)C1,-16,1.55
COc1ccc(CNC(=O)c2ccc(NCc3ccc(OC)cc3)c(S(=O)(=O)N3CCOCC3)c2)cc1,-10,1.62
CCc1ncnc(N2C[C@@H]3CN(C4CCCCC4)C[C@]3(C(=O)O)C2)c1F,-12,1.44

Compound,% Inhibition [%],Z score
CC12C(=O)N(c3ccc(F)cc3)C(=O)C1C2(c1ccccc1)c1ccccc1 (centres undefined),-2,0.28
Cc1nccn1[C@H]1[C@@H]2OC[C@@H](O2)[C@@H](NCc2ccccc2Cl)[C@@H]1O,5,-0.74
Cc1cc(CNC(=O)NCCOc2ccc(F)cc2F)no1,0,-0.04
O=C(Nc1ncc(CCO)s1)[C@@H]1CCCN1C(=O)Cc1cccs1,29,-1.09
CC[C@H]1CC[C@H](C(=O)N2C[C@H]3CC[C@@H](C2)NC3)CC1,-3,0.68
CN(C)C(=O)N(Cc1cccc(Br)c1)C1CCOCC1,-1,0.08
CN1C[C@@H]2CCC[C@H]1CN(S(=O)(=O)c1cn[nH]c1)C2,-3,0.53
C[C@](O)(CNCc1ccc2cn[nH]c2c1)c1cccc(Cl)c1,-6,0.7
COc1cccc(C(=O)N2CCN(c3ncnc4c3CCC4)CC2)c1,-7,0.78
Cc1ccc(CNC(=O)c2cc3cc(OCc4ccccc4)ccc3n2Cc2ccccc2)o1,37,-0.85
CCCn1c(C)ccc(-c2noc(CCCC(=O)N3CCOCC3)n2)c1=O,31,-0.67
O=C(NCCc1ccc(F)cc1)c1cnn2c1OCCC2,-7,1.16
Cc1ccc(N(C)Cc2c(C)nn(CCO)c2C)c(C)c1,-5,0.55
C(=C\c1cc(/C=C/c2ccccc2)n2nnnc2n1)/c1ccccc1,33,-4.3
O=C(OCCn1cncn1)c1cccc(F)c1Cl,-7,0.94
O=C(N[C@@H]1C[C@H]1C1CC1)N1CCOC2(CCC2)C1,0,0.04
Fc1ccc(-c2nc3c(-c4ccc(Cl)cc4)cnn3c3c2CCCCC3)cc1,9,-0.89
Cc1cc(C(=O)Nc2ccc(S(=O)(=O)NCCC(C)C)cc2)c(C)n1-c1nccs1,-12,1.4
CS(=O)(=O)NCCNC(=O)c1ccc(Br)cc1O,-4,0.93
N#CCCNc1ccc(Br)cc1,-1,0.12
CC(C)c1cc(C(=O)N[C@@H](C)c2nccs2)on1,-13,2.37

Compound,% Inhibition [%],Z score
CCc1ccc([C@@H]2CN(C(=O)c3cn[nH]c3)CCO2)cc1,-1,0.14
O=C(Cc1ccc2c(c1)OCC2)NCCN1CCOCC1,0,-0.04
Cc1c(CN2C[C@@H]3CC[C@H]2CN(C2Cc4ccccc4C2)C3)cnn1C,-14,1.38
CCn1c(CN[C@](C)(C(=O)OC)C2CC2)nc2cc(S(=O)(=O)N(C)C)ccc21,11,-1.58
FC1(F)CC[C@H](c2nc(Cc3ccc4cn[nH]c4c3)no2)C1,0,0.03
COc1ccc(C2CCCN2C(=O)C2CCCN(S(C)(=O)=O)C2)cc1OC (centres undefined),-3,0.44
CC1CCN(c2ccc(NS(=O)(=O)c3ccc4c(c3)CCCC4)cc2C(=O)O)CC1,-4,0.37
O=C(Cn1cnc2c(c1=O)CN(Cc1ccccc1)CC2)Nc1ccc(F)cc1,-9,1.2
C[C@H](NC(=O)CN(C)c1nc2c(Cl)cccc2s1)c1ccccc1,-3,0.52
CC(C)CCN1C(=O)CC[C@@H]2CN(C(=O)c3cc[nH]n3)CC[C@@H]21,-13,2.22
CCOc1ccc(C2c3[nH]c4ccccc4c3C[C@H]3C(=O)N(C4CCCCCCC4)CC(=O)N23)cc1OC (some centres undefined),12,-1.52
O=C(NCc1ccccc1CN1CCOCC1)c1ccc(OCc2ccccc2)cc1,-8,1.77
CC[C@H](C)N(CC(=O)N(Cc1ccc(F)cc1)Cc1ccc(C)s1)C(=O)C1CCC1,19,-2.35
COc1cccc(CN(Cc2ccc(CC3CCN(C(C)=O)CC3)cc2)C2CC2)n1,-11,2.18
COc1ccsc1S(=O)(=O)NCC#CCO,2,-0.42
COc1cc([C@H]2CC(=O)Nc3c2c(=O)[nH]n3C2CCCCCC2)cc(OC)c1O,9,-1.61
Cc1nn(Cc2nnc3n2CCCCC3)cc1N,32,-3.65
CCCc1ccc(CN2CCCn3nc(CN4CCCOCC4)cc3C2)o1,-6,0.75
Cc1nc(N(C)C)nc(N2CCC[C@@H]2c2csc(C)n2)n1,5,-0.88
COc1ccc(CN=C(N)Nc2ccc(OC)c(F)c2)cc1C,-2,0.35
COCC[C@]1(NS(=O)(=O)c2ccccc2)CCN(C2CCCCC2)C1,-7,0.78

Compound,% Inhibition [%],Z score
Cc1cc(Cl)ccc1OCC(=O)N[C@H](c1ccccc1)C1CC1,-4,0.36
CCn1cc(-c2cc(C(=O)Nc3c(C)noc3C)c3ccccc3n2)c(C)n1,-5,0.7
CCCCS(=O)(=O)N1CCC(CCc2noc(C3CC3)n2)CC1,0,0.08
O=C(O)c1c2c(nc3ccc(S(=O)(=O)N4CCC(C(=O)NC5CCCCCC5)CC4)cc13)CCCC2,-13,2.03
c1ccc(CCN2CCC[C@H](Cn3cncn3)C2)nc1,-8,0.91
O=c1cc2c(nn1CC1CCN(S(=O)(=O)c3ccc4c(c3)CCO4)CC1)CCC2,-7,1
CNC(=O)OCc1cccc(COC(=O)NC)n1 [PYRICARBATE],-5,0.46
C#CCNC(=O)Cc1ccc(OC)cc1,-14,2.67
CC1(C)CCC[C@@H]1C(=O)NS(=O)(=O)Cc1ccc(Br)c(F)c1,3,-0.37
C#C[C@@H](NC(=O)NCC1(N2CCOCC2)CC1)C(C)C,-18,1.98
COCC1(CNCc2cccc(O)c2)CCC1,1,-0.16
CC(C)(C)c1ccc(C(=O)N2CCOC[C@@H]2CC(N)=O)nc1,-7,0.91
CN1CCC(n2ccnc2-c2ccccc2-c2ccccc2)CC1,-12,1.15
Cn1cc(CNc2ncccn2)c(C(C)(C)C)n1,10,-1.02
Cc1c(C(=O)NCc2ccc3c(c2)C(=O)NCC3)nnn1CC1CCCC1,-4,0.83
Cc1ccc(C(=O)NCC(CNC(=O)c2ccc(C)o2)NC(=O)OC(C)(C)C)o1,5,-0.8
NC(=O)c1ccccc1NC(=O)CNC1(c2ccc(F)cc2)CCC1,5,-0.68
O=C(Nc1ccc(C(=O)N2CCN3CCNC(=O)[C@@H]3C2)cc1)C1CCC1,13,-1.76
Cc1oncc1CNS(=O)(=O)C[C@H]1COc2ccccc2O1,-9,1.53
